Assay results: EPA's CvTdb concentration-time database
Further values from the same series stand in other lists.

Key:
[1] = test system: Rat; experiment: concentration in plasma after dosing; details: 4 h; dosed: 2-Methyltetrahydrofuran; 100 mg/kg; oral; Female; Harlan Sprague Dawley
[2] = test system: Rat; experiment: concentration in brain after dosing; details: 1 h; dosed: 2-Methyltetrahydrofuran; 10 mg/kg; oral; Male; F344
[3] = test system: Rat; experiment: concentration in plasma after dosing; details: 0.25 h; dosed: 2-Methyltetrahydrofuran; 10 mg/kg; oral; Male; F344
[4] = test system: Rat; experiment: concentration in plasma after dosing; details: 6 h; dosed: 2-Methyltetrahydrofuran; 100 mg/kg; oral; Female; Harlan Sprague Dawley
[5] = test system: Rat; experiment: concentration in brain after dosing; details: 20 min; dosed: 2-Methyltetrahydrofuran; 10 mg/kg; oral; Female; F344
[6] = test system: Rat; experiment: concentration in plasma after dosing; details: 10 min; dosed: 2-Methyltetrahydrofuran; 10 mg/kg; oral; Female; F344
[7] = test system: Rat; experiment: concentration in brain after dosing; details: 2.5 h; dosed: 2-Methyltetrahydrofuran; 10 mg/kg; oral; Male; F344
[8] = test system: Rat; experiment: concentration in brain after dosing; details: 20 min; dosed: 2-Methyltetrahydrofuran; 10 mg/kg; oral; Female; F344; remark: listed apart in the source
[9] = test system: Rat; experiment: concentration in brain after dosing; details: 8 h; dosed: 2-Methyltetrahydrofuran; 100 mg/kg; oral; Female; Harlan Sprague Dawley
[10] = test system: Rat; experiment: concentration in brain after dosing; details: 8 h; dosed: 2-Methyltetrahydrofuran; 400 mg/kg; oral; Female; Harlan Sprague Dawley
[11] = test system: Rat; experiment: concentration in plasma after dosing; details: 2 h; dosed: 2-Methyltetrahydrofuran; 10 mg/kg; iv; Female; F344
[12] = test system: Rat; experiment: concentration in brain after dosing; details: 1.5 h; dosed: 2-Methyltetrahydrofuran; 10 mg/kg; oral; Male; F344
[13] = test system: Rat; experiment: concentration in plasma after dosing; details: 0.5 h; dosed: 2-Methyltetrahydrofuran; 10 mg/kg; oral; Male; F344
[14] = test system: Rat; experiment: concentration in plasma after dosing; details: 10 min; dosed: 2-Methyltetrahydrofuran; 10 mg/kg; iv; Female; F344
[15] = test system: Rat; experiment: concentration in plasma after dosing; details: 2 min; dosed: 2-Methyltetrahydrofuran; 30 mg/kg; oral; Female; F344
[16] = test system: Rat; experiment: concentration in brain after dosing; details: 6 h; dosed: 2-Methyltetrahydrofuran; 100 mg/kg; oral; Female; Harlan Sprague Dawley
[17] = test system: Rat; experiment: concentration in brain after dosing; details: 2 h; dosed: 2-Methyltetrahydrofuran; 10 mg/kg; iv; Male; F344
[18] = test system: Rat; experiment: concentration in brain after dosing; details: 1 h; dosed: 2-Methyltetrahydrofuran; 10 mg/kg; oral; Female; F344
[19] = test system: Rat; experiment: concentration in plasma after dosing; details: dosed: Bromochloroacetic acid, 100 mg/kg, oral, Female, F344
[20] = test system: Rat; experiment: concentration in plasma after dosing; details: 1 h; dosed: Fluorotelomer alcohol 8+2; 24 mg/kg; oral; Male; Harlan Sprague Dawley
[21] = test system: Rat; experiment: concentration in plasma after dosing; details: dosed: Formamide, 36 mg/kg, oral, Female, Harlan Sprague Dawley
[22] = test system: Rat; experiment: concentration in plasma after dosing; details: dosed: Formamide, 90 mg/kg, iv, Male, Harlan Sprague Dawley
[23] = test system: Rat; experiment: concentration in plasma after dosing; details: dosed: Formamide, 36 mg/kg, oral, Female, Harlan Sprague Dawley; remark: listed apart in the source
[24] = test system: Rat; experiment: concentration in plasma after dosing; details: 2 h; dosed: Formamide; 36 mg/kg; oral; Female; Harlan Sprague Dawley
[25] = test system: Rat; experiment: concentration in plasma after dosing; details: dosed: Formamide, 90 mg/kg, iv, Male, Harlan Sprague Dawley; remark: listed apart in the source
[26] = test system: Rat; experiment: concentration in plasma after dosing; details: dosed: Formamide, 300 mg/kg, oral, Male, F344
[27] = test system: Rat; experiment: concentration in plasma after dosing; details: dosed: Formamide, 36 mg/kg, oral, Female, Harlan Sprague Dawley; remark: listed apart in the source
[28] = test system: Rat; experiment: concentration in plasma after dosing; details: dosed: Formamide, 90 mg/kg, iv, Male, Harlan Sprague Dawley; remark: listed apart in the source
[29] = test system: Rat; experiment: concentration in plasma after dosing; details: dosed: Formamide, 300 mg/kg, oral, Female, F344
[30] = test system: Rat; experiment: concentration in plasma after dosing; details: dosed: Formamide, 30 mg/kg, iv, Female, F344
[31] = test system: Rat; experiment: concentration in plasma after dosing; details: dosed: Formamide, 36 mg/kg, oral, Male, Harlan Sprague Dawley
[32] = test system: Rat; experiment: concentration in plasma after dosing; details: 2 h; dosed: Formamide; 30 mg/kg; iv; Female; F344
[33] = test system: Rat; experiment: concentration in plasma after dosing; details: dosed: Formamide, 90 mg/kg, iv, Male, Harlan Sprague Dawley; remark: listed apart in the source
[34] = test system: Rat; experiment: concentration in plasma after dosing; details: dosed: Formamide, 90 mg/kg, iv, Male, Harlan Sprague Dawley; remark: listed apart in the source
[35] = test system: Rat; experiment: concentration in plasma after dosing; details: dosed: Formamide, 90 mg/kg, iv, Male, Harlan Sprague Dawley; remark: listed apart in the source
[36] = test system: Rat; experiment: concentration in plasma after dosing; details: dosed: Formamide, 600 mg/kg, oral, Male, Harlan Sprague Dawley
[37] = test system: Rat; experiment: concentration in plasma after dosing; details: 1 h; dosed: Pyridine; 5 mg/kg; iv; Male; F344
[38] = test system: Rat; experiment: concentration in plasma after dosing; details: 5 min; dosed: Pyridine; 0.5 mg/kg; iv; Male; F344

CC1CCCO1 (stereo not drawn) [2-Methyltetrahydrofuran]
Details	concentration in brain [µg/g]	concentration in plasma [ng/mL]
[1]	–	17900
[2]	1.17	–
[3]	–	5850
[4]	–	783
[5]	2.34	–
[6]	–	2150
[7]	0.0335	–
[8]	2.6	–
[9]	0.228	–
[10]	33.4	–
[11]	–	142
[12]	0.281	–
[13]	–	3430
[14]	–	10000
[15]	–	4670
[16]	2.07	–
[17]	0.199	–
[18]	0.435	–

O=C(O)C(Cl)Br (stereo not drawn) [Bromochloroacetic acid]
[19]
Details	concentration in plasma [ng/mL]
3 h	8610
5 min	7460

OCCC(F)(F)C(F)(F)C(F)(F)C(F)(F)C(F)(F)C(F)(F)C(F)(F)C(F)(F)F [Fluorotelomer alcohol 8+2]
Details	concentration in plasma [ng/mL]
[20]	373

NC=O [Formamide]
Details	concentration in plasma [ng/mL]
[21], 2 h	46400
[21], 5 min	9400
[22], 5 min	25800
[22], 36 h	22100
[23], 10 min	15500
[23], 20 h	18600
[25], 10 min	134000
[25], 18 h	33900
[26], 0.25 h	194000
[26], 5 h	254000
[27], 0.5 h	38700
[27], 48 h	2700
[28], 8 h	62800
[28], 12 h	54600
[29], 1 h	186000
[29], 72 h	6000
[30], 10 min	51700
[30], 18 h	10400
[31], 0.25 h	17300
[31], 5 h	44200
[33], 1 h	171000
[33], 3 h	161000
[34], 0.5 h	118000
[34], 48 h	5700
[35], 8 h	87400
[35], 12 h	75500
[36], 1 h	622000
[36], 72 h	36900

Details	concentration in plasma [ng/mL]
[24]	52800
[32]	42300

c1ccncc1 [Pyridine]
Details	concentration in plasma [ng/mL]
[37]	3750
[38]	530
